Test results as given in PMC5436744 (Cardiovascular Research, 2007).

Tests used:
zonula occludens-1 [1] = molecular target: T1, zonula occludens-1 (human (endogenous in left ventricular …, UniProt Q07157 1-1748)); experiment: co-IP
zonula occludens-1 [2] = molecular target: T1, zonula occludens-1; experiment: co-IP; remark: listed apart in the source
T1 sequence (Q07157 whole entry): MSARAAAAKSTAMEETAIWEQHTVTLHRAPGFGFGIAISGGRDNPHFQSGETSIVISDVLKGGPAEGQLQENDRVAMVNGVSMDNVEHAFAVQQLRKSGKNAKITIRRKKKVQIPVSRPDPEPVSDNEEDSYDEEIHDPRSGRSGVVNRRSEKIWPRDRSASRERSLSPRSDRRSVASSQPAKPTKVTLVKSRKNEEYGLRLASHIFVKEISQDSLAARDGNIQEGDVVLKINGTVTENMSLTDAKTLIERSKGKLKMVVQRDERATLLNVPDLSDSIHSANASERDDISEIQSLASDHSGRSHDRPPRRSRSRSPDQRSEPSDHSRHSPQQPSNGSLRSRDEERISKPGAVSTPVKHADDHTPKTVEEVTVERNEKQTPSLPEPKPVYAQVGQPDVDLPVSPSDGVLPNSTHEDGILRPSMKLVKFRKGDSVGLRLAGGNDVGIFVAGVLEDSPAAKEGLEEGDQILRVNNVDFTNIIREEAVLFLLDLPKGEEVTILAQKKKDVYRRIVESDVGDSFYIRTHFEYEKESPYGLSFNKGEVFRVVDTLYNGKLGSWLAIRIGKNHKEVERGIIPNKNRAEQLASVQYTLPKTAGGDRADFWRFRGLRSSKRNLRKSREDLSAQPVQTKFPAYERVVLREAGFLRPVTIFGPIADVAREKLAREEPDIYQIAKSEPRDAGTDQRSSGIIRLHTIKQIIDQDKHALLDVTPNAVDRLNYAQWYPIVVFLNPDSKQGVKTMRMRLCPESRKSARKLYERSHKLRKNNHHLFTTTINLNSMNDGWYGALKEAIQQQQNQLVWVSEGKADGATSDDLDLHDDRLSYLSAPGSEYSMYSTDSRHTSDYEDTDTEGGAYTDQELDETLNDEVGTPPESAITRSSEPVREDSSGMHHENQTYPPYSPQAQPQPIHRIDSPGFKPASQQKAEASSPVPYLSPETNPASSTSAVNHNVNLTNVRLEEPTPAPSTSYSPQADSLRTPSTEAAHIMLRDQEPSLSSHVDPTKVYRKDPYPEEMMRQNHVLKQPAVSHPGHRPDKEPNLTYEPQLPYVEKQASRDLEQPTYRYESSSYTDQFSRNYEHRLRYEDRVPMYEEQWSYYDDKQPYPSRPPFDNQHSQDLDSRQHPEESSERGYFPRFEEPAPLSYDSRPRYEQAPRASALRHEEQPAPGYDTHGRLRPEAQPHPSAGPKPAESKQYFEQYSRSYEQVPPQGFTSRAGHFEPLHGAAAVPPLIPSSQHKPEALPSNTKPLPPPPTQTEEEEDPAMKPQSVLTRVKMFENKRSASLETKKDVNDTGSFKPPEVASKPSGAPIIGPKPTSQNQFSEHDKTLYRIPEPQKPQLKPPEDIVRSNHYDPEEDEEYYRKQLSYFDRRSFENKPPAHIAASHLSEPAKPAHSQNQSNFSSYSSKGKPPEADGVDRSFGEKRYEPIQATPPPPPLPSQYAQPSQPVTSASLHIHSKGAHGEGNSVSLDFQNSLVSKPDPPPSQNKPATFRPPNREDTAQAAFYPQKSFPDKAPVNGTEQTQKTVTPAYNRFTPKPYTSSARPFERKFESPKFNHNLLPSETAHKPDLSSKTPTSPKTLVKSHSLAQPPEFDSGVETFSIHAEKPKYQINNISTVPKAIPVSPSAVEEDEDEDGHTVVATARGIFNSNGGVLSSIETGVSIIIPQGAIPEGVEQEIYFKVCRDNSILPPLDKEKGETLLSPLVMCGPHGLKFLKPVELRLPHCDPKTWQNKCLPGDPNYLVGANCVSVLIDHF

B1: connexin43 (natural protein)
chain: not shown
Which “proportion of Cx43 brought down by ZO-1, relative to Cx43 in the sample (DCM)” value (zonula occludens-1 [1]) does the source give for B1 here?
Its value is 12.8%.

What about the “proportion of Cx43 brought down by ZO-1, relative to Cx43 in the sample (ICM)” value (zonula occludens-1 [1]) of the same binder?
Its value is 12.8%.

What about the “proportion of Cx43 brought down by ZO-1, relative to Cx43 in the sample (DCM)” value (zonula occludens-1 [2]) of the same binder?
The value was 10.2%.

And the “proportion of Cx43 brought down by ZO-1, relative to Cx43 in the sample (ICM)” value (zonula occludens-1 [2])?
Its value is 11.5%.

Like-named read-outs stand apart in the source and are kept apart here.
